Test results reported in PubChem BioAssay.
Inconclusive results, whose numbers are uncertain, are shown with a selection of clear calls. Calls of active or inactive are those of the source.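 The calls were made as follows: active = viability at or below 27.92% in each of two runs, the all-compound median minus 4 SD; inconclusive = no clear call, values can overlap the other calls; inactive = the rest.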

Assay: viability of PTEN-null HCT116 cells – cell-based, HCT116 clonal line, CellTiter-Glo, pilot screen (AID 824);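 also: 0% = 20 µM Hyamine control and 100% = vehicle cell control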
Details: HCT116 PTEN-deleted viability, 60 h, at 10 µM, hits give low values
With `Cc1ccccc1-c1nc(CN2CCC(C(=O)NC3CCN(Cc4ccccc4)CC3)CC2)c(C)o1` the viability was active: 9.9%.
For `CN(C)c1ccc(C(=O)Nc2nnc(-c3ccc(Cl)cc3)o2)cc1`, the viability was active: 25.2%.
With `Cc1ccc(C)c(N2CCN(CCCNC(=O)Cn3cc4c(n3)CCC(C)C4)CC2)c1` (centres undefined) the viability was active: 2.81%.
For `CCOC(=O)CSC1=C(C#N)C(c2ccc(C)o2)CC(=O)N1` (centres undefined), the viability was active: 14.7%.
For `Cc1ccc(-c2oc3ccccc3c(=O)c2O)cc1`, the viability was active: 11.8%.
For `O=C(/C=C/N1CCOCC1)c1ccc(-c2ccccc2)cc1`, the viability was inactive: 80.6%.
With `Cc1cc(/C=N/n2cnnc2)c(C)n1-c1cccc(Cl)c1` the viability was inactive: 73.2%.
In the case of `CCOC(=O)c1ccc(N=c2sc(C(=O)OC)cc(=O)n2Cc2ccco2)cc1`, the viability was active: 1.63%.
For `COc1cc(C(=O)N2CCN(c3cc(Cl)ccc3Cl)CC2)cc(OC)c1OC`, the viability was active: 21.5%.
With `CCOC(=O)N1CCC(c2cc(=O)n3[nH]c(C)c(-c4ccc(F)cc4)c3n2)CC1` the viability was active: 19.7%.
In the case of `COC(=O)c1cc(=O)n(Cc2ccc3c(c2)OCO3)c(=Nc2ccccc2)s1`, the viability was inactive: 73.3%.
In the case of `CCn1c2ccccc2c2cc(Nc3cc(C)nc4ncnn34)ccc21`, the viability was active: 12.2%.
For `Cc1oc(-c2cccc(Cl)c2)nc1CN1CCC(C(=O)N2CCN(c3ccccc3F)CC2)CC1`, the viability was active: 10.2%.
In the case of `CCCN(CCC)C(=O)c1c(C)[nH]c(C(=O)OCC)c1C`, the viability was inactive: 86.7%.
With `O=C(OCC(=O)c1ccc[nH]1)c1ccc(S(=O)(=O)N2CCCCC2)cc1` the viability was inconclusive: 102%.
For `COc1ccc(C2CC(c3ccc(Cl)cc3Cl)Nc3nc(N)nn32)cc1` (centres undefined), the viability was inactive: 73.3%.
With `Cc1cc(C)c2c(=O)n(CC(=O)NCCCN3CCN(c4ccccc4F)CC3)sc2n1` the viability was active: 1.7%.
In the case of `C/C=C/COC(=O)c1[nH]c2c(c1C)C(=O)CC(c1ccco1)C2` (centres undefined), the viability was active: 19.8%.
In the case of `Cc1c(C(=O)OCc2ccccc2)[nH]c2c1C(=O)CC(c1ccco1)C2` (centres undefined), the viability was active: 18.2%.
